Measured values reported in the supplement of paper PMC11417369.
± gives the standard deviation of the averaged measurements. This is one part of the list.

Tested on: PfAP2-LT AP2 domain (GST-tagged)
Assay: gcPBM binding intensity (ln(normalized median fluorescence intensity)); higher = stronger DNA binding
Summary of the method: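 GST-fused DNA-binding domains of P. falciparum, expressed in E. coli, were applied at about 25 μg on average for 1 h to an Agilent 4 × 180k array of primer-extended double-stranded 36-bp intergenic genomic probes and negative controls. Binding intensity is the highest Masliner-normalised natural-log median intensity across replicate spots of either probe orientation, measured with Alexa488 anti-GST antibody and a 488 nm scan.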

Sequence | gcPBM binding intensity (ln)
TAACATATCTTTAATACACACTTAAAAAAGTACTTA [CACACA_site4532] | 8.48 ± 0.4
AATAATATTGAAATGTGTACGTATTTATATTTTATG [XGTACX_site8252] | 8.88 ± 0.42
TTTTGTTATATTCAATATTTATATATTATAAATATA [CACACA_negctrl_site1705] | 8.36 ± 0.38
TTTTTCTTTTTTACAGTGCATAAATATATGTATTGT [GTGCAC_site9399] | 8.77 ± 0.38
TTGTGAATAACTAAGAAGAAAAAGATAAATATGTAT [TGCATGCA_negctrl_site388] | 8.64 ± 0.58
TATTCATGCATATACACACACATATATTTATATTTT [CACACA_site7786] | 9.26 ± 0.36
ACATATATATAATATATATTTTTCGTGTGGTGTCAC [CACACA_negctrl_site543] | 8.84 ± 0.42
GAGCACCAAAATATATGTACATATGATAAATGTGAA [XGTACX_site1130] | 8.96 ± 0.51
AATATATATATAGGATGTACACATAATTCAAATATA [XGTACX_site2755] | 8.99 ± 0.43
ATCATTGAAGTTAAAAATATAAAGTATTCAGAAGGG [XGTACX_negctrl_site560] | 8.73 ± 0.52
TTTTTTATTTTATTTTTTTCTGCTTATCCACATTAG [XGTACX_negctrl_site108] | 8.52 ± 0.73
TCACTTTTATAATATAATATTCTATATCTTATTTTT [GTGCAC_negctrl_site717] | 8.69 ± 0.59
AGCCATTATAATTCTTGTACATAATATAGCTATTTT [XGTACX_site1723] | 9.03 ± 0.43
TATATAGTAATTTATTCACACAATTGGCACACCTCA [CACACA_site4679] | 9.06 ± 0.57
TATTTAAATTGTAAGTGTACATATATAAATGTAAAA [XGTACX_site1609] | 8.6 ± 0.45
TATAATATATATTTGTGTCCACAACATTTTTAATAT [XGTACX_site2089] | 8.72 ± 0.49
AATAAATTAAAACAGGTGCACTATATTACACACGCT | 9.36 ± 0.42
TAGATACAGAAACACACACACACATACATATATACA [CACACA_site3437] | 9.97 ± 0.24
AGAATTATTGTTAATGCATGTGGAAGTTAAAATATT [TGCATGCA_site188] | 8.72 ± 0.41
TTATGGAGAGTTATATGTACGAAAAATATGTATAAG [XGTACX_site515] | 8.62 ± 0.47
AATAATATATGGTGTACACAAAAGTATAAATAATTT [CACACA_site5338] | 9.2 ± 0.51
TATAAAAAAATAATAAATAAATAAAAAGATTTCTTT [TGCATGCA_negctrl_site122] | 8.26 ± 0.5
TAGATACATACACGCACACACATATATAAATAAATA [CACACA_site6157] | 9.68 ± 0.35

Sequence | gcPBM binding intensity (ln)
TAATTATGTACTATTATACACACGTTTAATTGTAAA [CACACA_site206] | 8.74 ± 0.42
AAAAAAAACAGACACACACACATACACATACATACA [CACACA_site2857] | 10.2 ± 0.19
TTACGTATGTATTATGTTGTATATGAAATTAAAAAA [GTGCAC_negctrl_site292] | 8.33 ± 0.57
TAAAAAAATATATATACATGCATAGAAAAAAAAAAA [TGCATGCA_site552] | 8.75 ± 0.48
ACACAAAAAATAAAAATATATATATATTATATATAT [CACACA_negctrl_site1489] | 8.81 ± 0.45
TAATAATAAATTGGTTGTACAACCTTATACAGAATA [XGTACX_site2592] | 8.59 ± 0.42
TTTTAAACAAAAATTTGTACACAATAATTAAATATA [XGTACX_site6755] | 8.32 ± 0.58
ATTTAATTTTTTTTTTTTTTTTTTCAATCCCCTTTT [CACACA_negctrl_site1013] | 8.32 ± 0.76
CATTTTAAAGAAAATACACACAAAAATAAATATATA [CACACA_site1395] | 8.81 ± 0.49
TTTTTTTATTAAAAATGTACAAAAATGAAAAAATAA [XGTACX_site8279] | 8.33 ± 0.45
CATATAATTTTATGGGTGCATTTTTTTGTAAGACCA | 8.5 ± 0.48
TTAAAAAAAAAAAGGTGTACTATAATTTAATATCAC [XGTACX_site6316] | 8.46 ± 0.49
TATATTTACGTATGTCGAACGTTATTTTGAACAACC [CACACA_negctrl_site1261] | 8.73 ± 0.49
TATTCAACATAATATGCACACAAAAATTATGGAACG [CACACA_site8660] | 9.14 ± 0.44
TTTAATTTTTTTTAAACACACACATTACATTCAAAA [CACACA_site7926] | 8.82 ± 0.49
TTATATTATGCTTGAATGCACTTTGAAGCACAATCT [GTGCAC_site9789] | 8.68 ± 0.54
AATATATAATTTTATAGTACATAATAAAAGAACAGG [XGTACX_site724] | 8.79 ± 0.43
ATCACATAAAATATGAATATATATTTTATATATATA [CACACA_negctrl_site340] | 8.56 ± 0.4
CGTTTATATAGTGATGCATGCATTGTTAACATGGTT [TGCATGCA_site418] | 9.12 ± 0.39
TTTATACACAAAAAATGTACATATATATAATGAATT [XGTACX_site1195] | 8.72 ± 0.46
TGTATGTCTTTATTTTGTACACAATATAAAAAATTA [XGTACX_site5441] | 8.51 ± 0.38
CGCACAAAAATATACACACACACATATATATTTATT [CACACA_site3645] | 9.74 ± 0.28
ATTTATTGACTATTTACACACATATTTATTATAATA [CACACA_site1624] | 9.12 ± 0.36

Sequence | gcPBM binding intensity (ln)
TTTTTTTTTTTTTTTATAGTACATTACCAAAAAAAA [CACACA_negctrl_site1197] | 8.06 ± 0.24
TTAAAATAAAGAAAATGTACATAAATTAAAATAAAG [XGTACX_site2281] | 8.75 ± 0.59
ACACATAATATGTGTAGTACTTTTTCTTTAACATTA [XGTACX_site1436] | 9.17 ± 0.31
TATAAATATAAATATACACACATATATTTATTTATA [CACACA_site6890] | 8.7 ± 0.35
AACAGTAACATTGAATGTACTTAATTTTAAGAAAAT [XGTACX_site2971] | 8.71 ± 0.49
TATTTTGTTCTTTCCACACACAAATACAGATATTGT [CACACA_site6097] | 9.35 ± 0.35
ATTTGTATATATTAATGTACACACATGCGTATGTTC [XGTACX_site7579] | 9.46 ± 0.38
TCTTATCCATATATTACACACTATAAATAGAAATTA [CACACA_site6274] | 8.43 ± 0.35
TGGGTAAACAGACACACACACATATAGATTTATATA [CACACA_site7026] | 9.59 ± 0.53
ACACACATATATACATGTACATATATATATATATAT [XGTACX_site451] | 9.8 ± 0.38
CTTCCAATAAAAAATGCACACATTGAAAATATTGAA [CACACA_site2688] | 8.84 ± 0.42
AAATTATATGAACATTGTACTTTATATATGTAAGAA [XGTACX_site1611] | 8.6 ± 0.45
ATTTTCCAAAATAATTGTACAGGAAAGAAATAATTA [XGTACX_site7424] | 8.45 ± 0.4
TGTAGTCTGGAGAAAAGTACATAGTATCTGGTAACC [XGTACX_site2025] | 8.73 ± 0.42
TAATAAAATATGTACACACATACACCCATATATATA [CACACA_site1220] | 9.21 ± 0.35
AGGAACAAAATATACTGTACTTTATTATTTTCAAAA [XGTACX_site4421] | 8.47 ± 0.51
ATACATATTTTACATTCACACAACAAATTTATATTT [CACACA_site4700] | 8.8 ± 0.52
ATATATTTTAATTGATGTACTTTTTTATGTTAATGA [XGTACX_site4316] | 8.62 ± 0.43
TATACATATGAAAATACACACATACATACATATATA [CACACA_site8484] | 9.32 ± 0.33
ATTATACATATATAAGTGCAATAATGTTTTTTCCTT | 8.7 ± 0.45
AAGGTATATATAACTACACACTTATATATAATCTAA [CACACA_site92] | 8.84 ± 0.45
ATTTATTTATTTATATGTACATATTTAAAGAGTTCA [XGTACX_site7631] | 8.58 ± 0.44
ATATATATATATATATGTACTAAGAATTCTTTAAAA [XGTACX_site8476] | 8.99 ± 0.27

Sequence | gcPBM binding intensity (ln)
TTACTTTTAACAAATGTGCGCAGTTATCACACAGAC | 8.98 ± 0.21
TATATTTTGTTCTGTTGTACTAAAAAAATCTTTATA [XGTACX_site8372] | 8.39 ± 0.35
ACAAAACAAAAAAACTCACACATATACGGCATGTCA [CACACA_site5608] | 8.97 ± 0.4
ATTATAACTAAATAAATGATATATAATATTTTATTT [XGTACX_negctrl_site234] | 8.3 ± 0.54
TATATATAGAAACACACACACACACCCAAGCGTAGC [CACACA_site63] | 10.1 ± 0.13
AATTATAAAAAAAAAAAAAAAAAAAAAAACTAAATG [CACACA_negctrl_site1379] | 8.41 ± 0.54
ATAATGTATTTATATATATATATATATTTTAATAAA [CACACA_negctrl_site460] | 8.64 ± 0.26
TAATAAATCAATAAATGTACATATATGTATAATTTC [XGTACX_site980] | 8.91 ± 0.41
TTTAAAAATATATTCACACAGAAATAGTAAAAGTTA [CACACA_site4587] | 8.61 ± 0.42
TAAATATATTTATAAGCACACACTAATAAACCAACA [CACACA_site8022] | 9.11 ± 0.32
TTATGCAATTTGTATTGTACATTCATGATATTAATA [XGTACX_site5070] | 8.67 ± 0.4
ATCTATATCTATAATACACACATAAATGGATATATA [CACACA_site6284] | 8.87 ± 0.33
AATGTGTACGCACGCACACACAAAAAAATATATATA [CACACA_site2913] | 9.59 ± 0.54
CAAGCCCTTCTGCTTACACACAGTAATTATTGTGCA [CACACA_site7399] | 9.12 ± 0.36
AATACCCATATCTTCACACATACATAATAAATTATA [CACACA_site5367] | 8.81 ± 0.36
TTTGAATATTCATATGCACACAAATTAATATACATA [CACACA_site8040] | 8.84 ± 0.33
TTTATTTATGTGTGGGTGCATATACGTATGATGTAT | 9.15 ± 0.32
TTTATTTTATTTTCATGTACAAAAGGGGAATAATAA [XGTACX_site2704] | 8.26 ± 0.34
GATTTATACAAATATGTACACACTAAATATATATTA [CACACA_site455] | 8.83 ± 0.4
TATTTATCTTTACGCACACACTTGCATGTACAAAAG [CACACA_site4753] | 9.32 ± 0.44
